Data from PubChem BioAssay AID504466 (National Center for Advancing Translational Sciences (NCATS), 2011).
Screen size: about 330,000 compounds; about 4,200 (1.3%) were called active. The inconclusive results got no clear call from the source; some entries with a clear call stand among them for comparison. Calls come from the whole dose curve; as a rule, active = well fitted activation curve with a large enough effect; inconclusive = small, poorly fitted or top-dose-only effect; inactive = no such curve, though single readings can be large or run the other way. Where the call is inconclusive, the potency comes from a doubtful curve fit.

assay: qHTS screen for small molecules that induce genotoxicity in human embryonic kidney (HEK293T) cells expressing luciferase-tagged ELG1; conditions: HEK293T ELG1-luciferase reporter, luminescence, 16 h; series mostly up to 46 µM; note: nearly all actives have a fitted effect of over 60% in size
How it was run: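 16 hr compound incubation (37 °C, 5% CO2) of HEK293T cells carrying luciferase-tagged ELG1; luciferase then measured by ONE-Glo luminescence after 30 min at RT.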
Potency is the fitted concentration of half-maximal effect; tags give direction and shape of the fitted curve.

| Structure (SMILES) | Potency |
| --- | --- |
| COc1ccc(C(=O)Nc2nnc(SCC(=O)NC3CCCC3)s2)c(OC)c1 | active: 2.91 µM |
| Cc1ccc(S(=O)(=O)NC(=O)NCc2ccc3c(c2)OCO3)cc1 | inactive |
| CNC(=O)c1sc2nc(-c3ccc(OC)cc3)cn2c1C | active: 2.06 µM |
| C/C(=N\Nc1nc(C(C)(C)C)cs1)c1ccccc1 | active: 3.66 µM |
| Oc1ccc(-c2nnc(SCc3ccccc3)o2)cc1 | inconclusive: 4.61 µM [activator, partial curve, poor fit] |
| CCc1ccc(CCC(=O)Nc2nccs2)o1 | inconclusive: 2.06 µM [activator, partial curve, poor fit] |
| O=[N+]([O-])c1ccc(NCc2ccccc2)nc1 | inconclusive: 14.6 µM [activator, partial curve, poor fit] |
| COc1ccc(-c2ccc(CCC(=O)O)o2)cc1 | inactive |
| CCCCCCCOc1ccc(OC(=O)c2cccnc2)cc1 | inconclusive: 18.4 µM [activator, single point] |
| COc1ccc(/C=N\NC(=O)c2ccccc2)cc1COc1ccc(F)cc1 | inactive |
| Cc1cccc(OCc2nnc(NC(=O)c3cccs3)s2)c1 | inactive |
| C=C(C)C(=O)Nc1cccc(C2=NOC3(C2)C[C@@H](C(N)=O)N(C(=O)C(=C)C)C3)c1 (stereo partly specified) | inactive |
| CC(C)(C)c1ccc(C(=O)NNC(=O)c2ccncc2)cc1 | inactive |
| Cc1cc(C)nc(Nc2nc(-c3ccccc3)cs2)n1 | active: 1.64 µM |
| C=CCC1(CC=C)CCCN1C(=O)C1CCC(=O)N(CCc2ccc(OC)cc2)C1 (stereo unspecified) | inconclusive: 7.3 µM [activator, partial curve, poor fit] |
| CCCCOC(=O)Nc1ccc(C(C)C)cc1 | inconclusive: 16.4 µM [activator, partial curve] |
| O=C(Nc1ccccc1)C1C2CCCCC21 (stereo unspecified) | inactive |
| COc1ccc(/C=C(\C#N)C(=O)Nc2ccccn2)cc1 | inconclusive: 0.184 µM [activator, single point] |
| COCCNC(=O)/C(C#N)=C/c1c(F)cccc1Cl | inconclusive: 20.6 µM [activator, single point] |
| Cc1ccc(S(=O)(=O)N(C(=O)c2ccncc2)c2ccc3oc4c(c3c2)CCCC4)cc1[N+](=O)[O-] | inactive |
| O=C(Nc1ccc2oc(-c3cccc(F)c3)nc2c1)c1ccccc1F | active: 20.6 µM |
| COc1cc(/C=N/O)ccc1OCc1ccccc1Cl | active: 16.4 µM |
| CC(=O)CSc1nnc2c3ccccc3nc(C(C)(C)C)n12 | inconclusive: 1.64 µM [activator, partial curve] |
| COc1ccc(-c2nc(-c3ccncc3)no2)cc1OC | active: 16.4 µM |
| COc1ccccc1-c1nc(COc2ccc(Cl)cc2Cl)no1 | inconclusive: 16.4 µM [activator, partial curve] |
| O=C(NCCc1c[nH]c2ccccc12)c1ccccc1 | inconclusive: 23.1 µM [activator, single point] |

| Structure (SMILES) | Potency |
| --- | --- |
| c1csc(-c2nn3c(C4COc5ccccc5O4)nnc3s2)c1 (stereo unspecified) | inconclusive: 18.4 µM [activator, single point] |
| CC1(C)NC(=O)N(CCCOc2ccc(Br)cc2Cl)C1=O | active: 14.6 µM |
| O=C(CN1CCC(Cc2ccccc2)CC1)NC(=O)NCc1ccccc1 | inactive |
| COc1cc(/C=N/NC(=S)NC2CC3CC2C2C=CCC32)ccc1O (stereo unspecified) | inactive |
| CSc1ccccc1C(=O)Nc1cc2c(cc1C(=O)O)OCCCO2 | inactive |
| Cc1nc2cc(NC(=O)N3CCCCC3)ccc2n1C | inconclusive: 11.6 µM [activator, partial curve, poor fit] |
| c1ccc(-c2nc3c4ccccc4ccn3c2CN2CCOCC2)cc1 | inconclusive: 18.3 µM [activator, partial curve, poor fit] |
| NS(=O)(=O)c1ccc(N/N=C/c2ccccn2)c([N+](=O)[O-])c1 | inconclusive: 14.1 µM [activator, partial curve, poor fit] |
| c1ccc2c(c1)NC1(CCCCCC1)n1c-2nc2ccccc21 | active: 3.98 µM |
| Cc1ccc(NC(=O)Cn2cnc3c(oc4nc5c(cc43)COC(C)(C)C5)c2=O)cc1 | inconclusive: 29.1 µM [activator, partial curve, poor fit] |
| COc1ccc(CNc2ncnc3c2[nH]c2ccccc23)cc1 | inactive |
| Cc1nc2cc(-c3ccc(Br)cc3)[nH]n2c(=O)c1Cl | active: 16.4 µM |
| CCOc1ccc(Nc2nc(Cc3nnc(SCC(N)=O)o3)cs2)cc1 | inactive |
| CC1=NC(=O)C(N=Nc2ccccc2)N1c1ccccc1 (stereo unspecified) | inconclusive: 14.6 µM [activator, partial curve] |
| Cc1c(Nc2nc(-c3ccc(Cl)cc3)cs2)c(=O)n(-c2ccccc2)n1C | inactive |
| COc1cc(CN2CCC(C(=O)NCC(C)(C)CN(C)C)CC2)ccc1OCc1ccccc1 | inconclusive: 29.1 µM [activator, single point] |
| Cc1c(C(=O)Oc2ccc(-c3cnc4ccccc4n3)cc2)cccc1[N+](=O)[O-] | inconclusive: 8.2 µM [activator, partial curve, poor fit] |
| O=C(NNc1nc2ccccc2s1)Nc1ccc(F)cc1 | inconclusive: 10.3 µM [activator, partial curve] |
| O=C(Nc1ccc(N2CCCCC2)cc1)c1cccnc1 | active: 9.2 µM |
| C#CCN(CC=C)C(=O)CCc1nnc(COc2ccccc2)o1 | inconclusive: 25.9 µM [activator, partial curve, poor fit] |
| CCN(CC(=O)Nc1ccccc1C(F)(F)F)C(=O)c1ccc(N2CCCC2=O)cc1 | inactive |
| COc1cc(SC)ccc1C(=O)OCC(=O)NC1CCCC1 | inconclusive: 20.6 µM [activator, partial curve, poor fit] |
| COc1ccc(C(=O)Nc2nnc(SCC(=O)NCc3ccco3)s2)c(OC)c1 | active: 0.517 µM |
| O=C(NCCCN1CCCC1=O)c1sc2ccccc2c1Cl | inconclusive: 20.6 µM [activator, single point] |
| COc1ccc2nc3oc(C(=O)N4CCCCC4)cc3cc2c1 | active: 14.6 µM |
